In the supplement of paper PMC3334620:
Over roughly 33,000 sequences, “E-score (-0.5 to 0.5)” has its median near -0.016; the highest 2% begin near 0.31. This is one part of the list.

The sequences below were run against Cst6 (UniProt P40535) (assay: PBM E-score (8-mer binding enrichment) (E-score (-0.5 to 0.5)); higher = stronger / more preferred TF binding; most listed sequences are background and not binding sites). Conditions: protein concentration: 200 nM; construct: GST-DNA-binding domain.
Method: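 Universal 'all 10-mer' protein binding microarrays (Agilent AMADID 015681) probed with GST-tagged S. cerevisiae TFs (full-length or DBD) made by in vitro transcription/translation (PURExpress), about 100-200 nM. Bound TF was detected with fluorescent anti-GST. Each ungapped 8-mer (which stands for itself and its reverse complement) is scored by the PBM enrichment score (E-score), a modified Wilcoxon-Mann-Whitney statistic from -0.5 to +0.5, computed with the Universal PBM Analysis Suite. Scale: above 0.35 generally sequence-specific binding.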

Sequence | PBM E-score
AGTAGCCA | -0.215
AGATTCGA | -0.0176
AAAGACCT | -0.062
GATTGATA | 0.146
CATGCTGC | -0.0018
CTGATAGA | 0.0773
CTCATGCA | 0.00428
TTATTAAA | 0.264
GGCATGCC | -0.117
ATCTCCAG | -0.0495
CGCTTCCC | -0.248
AAAATCTG | 0.144
TAGTAGCA | 0.00148
AAAGCACC | -0.239
ATCTGTGA | 0.0639
CGTATGAG | 0.133
CAACCATG | 0.0317
AGCTTGAG | -0.186
CCGCGGCA | 0.197
GTGGCTCA | -0.0901
CAAGTCAA | -0.0333
ACAGTCCA | -0.148
TAATGCTA | 0.234
GGTTCCTA | -0.261
ACAAGAGG | 0.00877

Sequence | PBM E-score
GATGGGCA | -0.0276
CGGTAACG | 0.0497
GGCGAGCC | -0.168
CGGCCTAA | -0.0437
CTAGCGAA | -0.28
AGATGAAA | 0.0551
CATCGATC | 0.118
CAGACGCA | -0.0613
GATGGGAA | -0.204
CGCCCCGA | -0.174
AGGTTAAG | -0.137
CCCCAACA | -0.22
CCTGAAGG | -0.088
GCACAAAC | 0.0482
ACCTACGA | 0.00194
CCAGTCGC | -0.215
AGTGCCGC | 0.218
CAGGCCTA | -0.0934
CCTCAGAA | -0.0484
CACTGATA | 0.0895
AGAGTTCG | 0.064
GTGACGTA | 0.496
AGTTCCAG | -0.134
CGTAAGGA | 0.116
ATCGATGA | 0.222

Sequence | PBM E-score
CCTCTCCC | -0.367
GTAAGCAC | -0.0636
TACAAGAA | 0.245
CCGGGCTA | -0.378
CTAGTCAC | -0.00028
GAAAGAAA | 0.221
GCTACTGA | 0.111
CAGTGACC | -0.0895
CCTGCAAA | -0.202
AACGGTAA | -0.0952
ACTCCCGA | -0.272
GTAGGGTA | 0.0635
AGCTATCA | 0.08
GTCCAGAC | -0.301
CAGGGTAG | -0.221
AGTCTACG | -0.232
AGCAACAC | 0.068
GGTCCACC | -0.251
GAGTTGCA | -0.143
CTCGAATA | -0.156
CCGCACAA | 0.0801
ATGCACCG | -0.219
AAAGAATT | 0.16
ACACGCGC | 0.07
CTAAGGCA | -0.0149

Sequence | PBM E-score
AATCGTAG | 0.0692
CGTCCCAC | 0.0468
AAGGTAGA | -0.0519
AGATTTAA | 0.0599
CACAGGTG | -0.0326
CTGCCCAA | -0.183
GTTGACAA | 0.23
AACTACCC | -0.182
ATACGTGC | 0.106
GCCCCCAA | -0.162
ACATTGGT | -0.0917
GGTAGAAC | -0.129
ACTATAAG | 0.0701
GAGGTGGC | -0.11
CGACCGCA | -0.211
AATGACTA | 0.041
AAGATGAT | 0.229
ATGTGGGG | -0.237
AGCTGTAG | -0.119
CCTCGCTC | 0.145
TGGTTCAA | 0.0678
ACGTGACT | 0.00931
CCTAGCAA | -0.12
GACACGAC | 0.0635
CAAAGAGG | -0.0684

Sequence | PBM E-score
GATTCATA | 0.106
AATCGACT | -0.114
CTAGGAGC | -0.218
CAATAGCC | -0.0299
ACATAGAG | 0.00815
CAGGAAGA | -0.0433
ACGTCTGA | 0.14
ACAATGCT | -0.0195
CTGACACC | -0.166
ACGGACCA | 0.0335
ATCATATA | 0.299
CCACAATC | -0.135
CTCCTATA | -0.222
CGTGCCTC | 0.162
TAAGGACA | 0.0193
GCACTTAC | 0.168
GAACTGAA | 0.0836
AGTCCGGC | -0.0764
CTCCCGTA | -0.275
AGCCGAAA | -0.053
CGCTGACA | 0.166
GGCTTGCA | 0.00048
GTGCTAAC | -0.0346
AATTTACC | 0.0689
TGGATTAA | 0.0667

Sequence | PBM E-score
AGAGGTCG | -0.12
AGCTTTTC | -0.00677
CTTGTAAC | 0.147
AGGTTACG | 0.0832
CTCGAGTA | -0.0335
TCCTGCGA | -0.0512
ATGCTTTA | 0.0449
GGCGCGCA | 0.0653
CGGAGGTA | -0.282
CTCCTCAG | -0.231
GTCATCGA | 0.348
TCCGTCGA | -0.0429
TCGAAACA | 0.181
CTTCCAGC | -0.0967
CTATAAGA | -0.0156
GCCCTTAC | -0.228
ACCACCAG | -0.0729
CAGGGGCC | -0.187
ACTCGAGA | -0.0827
GCGGGCAC | -0.0755
ACCTGGGA | -0.137
CAGTTTAA | 0.0613
CTTTTGGC | 0.0121
AATGCAAC | 0.19
ATACTTAA | 0.118

Sequence | PBM E-score
TAATTCGA | 0.0188
CTGACATC | 0.307
ATTTCAGC | 0.00693
CCGCAGTA | -0.0737
ACATTAGT | -0.0516
GTAAGCAA | 0.0453
TACGAGGA | -0.141
AATACTTA | 0.032
CGCATCTA | 0.145
CATGTCCC | -0.15
AAATTATG | 0.164
ACCCGCTA | -0.249
AGAAGTAA | 0.216
ATTCTGTA | 0.0162
CGACACCC | -0.126
AAGTGGTC | -0.0188
CTGCCATC | -0.0826
GAGGTACC | -0.281
AATCAGTG | 0.0564
AATGATGC | 0.347
AGCAAAAC | 0.032
AGTTTGGG | 0.0894
